From publication PMC4336329 (PLoS ONE, 2015)
Out of some 310,000 compounds screened, about 14,000 (4.5%) showed an effect of 50% or more. The effect is printed as a negative number. Some of the results follow.

What follows are compounds tested against human ether-à-go-go-related gene (hERG) potassium channel (human, UniProt Q12809) (assay: primary screen, population patch clamp on CHO cells stably expressing hERG).
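Further: peak tail current of the secondary pulse compared with the same well before compound.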

human ether-à-go-go-related gene (hERG) potassium channel, sequence (Q12809 whole entry, looked up): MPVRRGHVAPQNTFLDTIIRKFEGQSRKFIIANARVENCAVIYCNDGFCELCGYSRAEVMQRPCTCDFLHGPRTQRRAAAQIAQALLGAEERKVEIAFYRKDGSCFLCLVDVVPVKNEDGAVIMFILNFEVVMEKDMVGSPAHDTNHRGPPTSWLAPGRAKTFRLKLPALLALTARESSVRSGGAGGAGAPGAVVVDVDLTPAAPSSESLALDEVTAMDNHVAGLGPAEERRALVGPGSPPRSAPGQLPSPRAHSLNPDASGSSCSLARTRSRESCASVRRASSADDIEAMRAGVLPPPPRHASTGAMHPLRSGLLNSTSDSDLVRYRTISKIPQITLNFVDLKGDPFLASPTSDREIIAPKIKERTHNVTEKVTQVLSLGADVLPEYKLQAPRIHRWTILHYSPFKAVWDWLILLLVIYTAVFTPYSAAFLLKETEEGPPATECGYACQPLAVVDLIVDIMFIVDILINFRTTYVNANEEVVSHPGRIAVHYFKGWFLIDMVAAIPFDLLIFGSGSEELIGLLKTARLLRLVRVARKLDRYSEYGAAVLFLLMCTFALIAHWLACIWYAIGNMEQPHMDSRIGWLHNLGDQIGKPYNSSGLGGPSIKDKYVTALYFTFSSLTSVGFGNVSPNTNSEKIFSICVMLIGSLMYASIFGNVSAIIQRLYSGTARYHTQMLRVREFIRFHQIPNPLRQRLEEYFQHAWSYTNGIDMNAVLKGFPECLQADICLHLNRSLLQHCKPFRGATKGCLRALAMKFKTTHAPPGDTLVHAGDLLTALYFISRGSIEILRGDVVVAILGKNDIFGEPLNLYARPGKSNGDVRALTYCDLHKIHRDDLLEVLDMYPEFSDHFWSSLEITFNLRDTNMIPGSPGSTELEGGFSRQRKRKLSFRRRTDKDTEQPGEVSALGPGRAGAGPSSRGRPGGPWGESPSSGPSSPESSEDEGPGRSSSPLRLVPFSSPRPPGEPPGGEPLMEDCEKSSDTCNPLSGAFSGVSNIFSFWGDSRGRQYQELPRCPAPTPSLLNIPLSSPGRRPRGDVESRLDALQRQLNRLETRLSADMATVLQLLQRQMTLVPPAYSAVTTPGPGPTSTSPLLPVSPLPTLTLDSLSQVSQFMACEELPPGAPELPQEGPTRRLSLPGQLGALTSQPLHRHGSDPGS

SMILES	hERG current change (%, negative = inhibition) at 10uM [%]
Cc1ccccc1-c1nc(C#N)c(N2CCC(C)CC2)o1	14.4
O=C(O)c1ccc2ncsc2c1	9.83
COc1ccc(NC2c3ccccc3C(=O)N2c2ccccn2)cc1Cl (stereo not drawn)	-5.24
CCS(=O)(=O)Nc1ccc(C2=NN(C(=O)c3ccco3)C(c3ccco3)C2)cc1 (stereo not drawn)	-7.66
COc1ccc2nc(N3CCCCC3)c(C#N)cc2c1	30
COc1ccc(C(c2c(O)c3ccccc3oc2=O)c2c(C)n(C)n(-c3ccccc3)c2=O)cc1 (stereo not drawn)	4.91
Cc1ccc(/C=N/n2c(-c3ccco3)n[nH]c2=S)s1	14.1
O=C1NC(=S)N(c2ccc(F)cc2)C(=O)/C1=C/c1ccccc1O	8.34
CCN1C(=O)c2ccccc2S(=O)c2ccc(C(=O)N3CCOCC3)cc21 (stereo not drawn)	10.3
O=C(CN1CCCCC1)N1CCN(S(=O)(=O)c2ccccc2)C1	7.89
O=C(COC(=O)c1ccc(Cl)nc1)NC(=O)c1ccccc1	2.33
CCOc1ccc(CN2CCC(C(=O)N3CCN(c4ccccc4F)CC3)CC2)cc1OC.O=C(O)C(=O)O	-64.8
Clc1ccc(Cc2nn3c(Cn4nnc5ccccc54)nnc3s2)cc1	-10.7
O=C(NCc1cccnc1)c1cn(-c2ccccc2)nc1-c1cccs1	-32
O=C(c1cccnc1)N1CCN(S(=O)(=O)c2cccs2)CC1	-35
O=C(/C=C/c1ccncc1)c1ccc(NC(=O)c2ccccc2F)cc1	-5.64
NC(=O)Cc1ccc(Nc2nnc(-c3ccccc3)c3ccccc23)cc1	1.35
O=C(CN1C(=O)NC2(CCCC2)C1=O)Nc1cc(Cl)ccc1N1CCOCC1	0.45
COc1ccc(/C=N/N2CCN(c3ccc(Cl)cc3)CC2)cc1O	4.74
Cc1noc(C)c1C(=O)Nc1ccc(N(C)C)cc1	18.8
O=C(NCCCN=C1NS(=O)(=O)c2ccccc21)c1ccco1	-10
COc1ccc(C(C)(C)C)cc1NC(=O)Nc1ccc2c(c1)OCO2	16.8

SMILES	hERG current change (%, negative = inhibition) at 10uM [%]
N#Cc1ccc(OCC(O)CS(=O)(=O)c2ccc(F)cc2)cc1 (stereo not drawn)	-20.7
NS(=O)(=O)c1ccc(CCNC(=O)C2(S(=O)(=O)c3ccc(Cl)cc3)CC2)cc1	11.8
Cc1oc2cc(O)cc(O)c2c(=O)c1-c1ccc2c(c1)OCCCO2	3.88
[O-][n+]1c2ccccc2[n+]([O-])c2cc(O)ccc21	6.19
COC(=O)C1CCN(C(=O)CC(NC(=O)C(F)(F)F)c2cccs2)CC1 (stereo not drawn)	10.6
COc1cc(COC(=O)Oc2ccc(CNC(C)=O)cc2OC)c([N+](=O)[O-])cc1OC	-20.6
Cc1cc([N+](=O)[O-])nn1Cc1noc(C(=O)NCc2ccc3c(c2)OCO3)n1	-11.3
CC(C)C[C@H](N)c1cn([C@@H](Cc2cc3ccccc3[nH]2)C(=O)N2CCNCC2)nn1.Cl	16.4
Cc1csc(=O)n1CCC(=O)OCC(=O)c1ccc(Br)cc1	-18.4
COc1ccc(C(C)NC(=O)CCc2ccccc2)cc1 (stereo not drawn)	10
Cc1[nH]n(-c2ccccc2)c(=O)c1/C=N/c1nn[nH]n1	11
COc1cccc(C(NC(C)=O)c2ccc3cccnc3c2O)c1 (stereo not drawn)	6.66
Cc1nc(NS(=O)(=O)c2ccccc2)sc1C(=O)NN	14.3
C/C(=N/NC(=O)C1CC1(c1ccccc1)c1ccccc1)c1ccco1 (stereo not drawn)	5.78
Cc1cccc(NC(=O)CNC(=O)c2ccc(-n3cncn3)c([N+](=O)[O-])c2)c1C	-9.18
CCC(=O)Nc1nnc(-c2ccc(Cl)s2)o1	7.77
CC(=O)c1c(C)[nH]c(C(=O)CN2CCN(S(=O)(=O)c3ccccc3)CC2)c1C	6.67
Cc1ccc(C(=O)N(CN2CCCC2=O)c2ccccc2)cc1C	-2.65
COc1ccc2cc(CCC(C)=O)ccc2c1	7.65
S=c1nc(-c2sccc2OCc2ccc(Cl)cc2Cl)[nH][nH]1	13.1
NC(=O)C1CCN(C(=O)Cc2ccc([N+](=O)[O-])cc2)CC1	-1.06
O=C1NC(=O)N(c2ccccc2F)C(=O)/C1=C/c1cn(CC(=O)N2CCOCC2)c2ccccc12	16.1

SMILES	hERG current change (%, negative = inhibition) at 10uM [%]
Cc1ccccc1NS(=O)(=O)c1ccc(C(=O)N2CCCCCCC2)cc1	-28.3
O=C(NCc1ccccc1C(F)(F)F)C12CN(Cc3ccccc3)CC1C(c1ccc([N+](=O)[O-])cc1)=NO2 (stereo not drawn)	-3.04
Cc1ccc(Cn2c(CCNc3nc(-c4ccc(C)cc4)cs3)nc3cc(C(=O)NCCCO)ccc32)cc1	-7.18
COCCCNC(=O)CCc1nc(-c2ccccc2)no1	9.36
CCCCCc1nc2ccccc2c(=O)n1N	-4.28
O=S1(=O)[C@H]2C[C@@H]3C=C[C@@]2(CN1Cc1cccc(F)c1)O3	2.94
Cc1nc2ccc(S(=O)(=O)NC(C(=O)NCc3cccs3)C(C)C)cc2s1 (stereo not drawn)	11.7
CC1CN(C)C(c2ccccc2)C(C)C12NC(=O)NC2=O (stereo not drawn)	12.8
CCOC(=O)c1c(C)n(C)c2ccc(O)c(CN3CCCCC3)c12	-55.5
COc1ccc(Nc2nccc(-c3ccc([N+](=O)[O-])cc3)n2)cc1	16.4
CC1CC1C(=O)OCC(=O)Nc1cccc([N+](=O)[O-])c1 (stereo not drawn)	-1.09
Cc1ccc2oc(C(=O)N3CCC(O)(c4cccc(C(F)(F)F)c4)CC3)c(C)c2c1	9.54
Cc1ccc(S(=O)(=O)Nc2ccc(C(=O)NCc3ccncc3)cc2)cc1	5.68
O=C(c1ccco1)N1CCN(C(=O)c2cc(-c3ccccn3)nc3ccccc23)CC1	-34.8
NC(=O)CC(NC(=O)c1cccc(Br)c1)c1ccc(N2CCC(N3CCCC3)CC2)c([N+](=O)[O-])c1 (stereo not drawn)	-2.58
Cn1c(C(=O)O)ccc1S(=O)(=O)N(Cc1ccccc1)Cc1ccccc1	16.5
Cc1noc(C)c1CSc1nc2ccccc2nc1NS(=O)(=O)c1ccc(Cl)cc1	8.69
COc1ccc(C(=O)CSc2nnc3n2CCCN3C(=O)Nc2ccccc2)cc1	-24.8
N#CCC(=O)N/N=C/c1ccc(OCC(=O)Nc2ccc(F)cc2)cc1	2.36
CN=C(Nc1ccccc1)SC1CC(=O)N(c2ccc(C(=O)OC)cc2)C1=O (stereo not drawn)	10.6
Cc1nn(Cc2ccccc2)c(C)c1NC(=O)c1noc2c1CCc1ccccc1-2	-0.841
Cn1c(CN2CCCCC2)c(C#N)c2ccccc21	-25.6

SMILES	hERG current change (%, negative = inhibition) at 10uM [%]
Cc1ccccc1N(CC(=O)N1CCN(c2ccccc2)CC1)S(C)(=O)=O	-2.54
Cc1ccccc1NC1=NCC(C)S1 (stereo not drawn)	-2.32
C=CCOC(=O)C1=C(C)OC(N)=C(C(=O)OCC)C12C(=O)N(CC(N)=O)c1ccccc12 (stereo not drawn)	0.469
CC(C)c1ccc(NC(=O)CSc2nc3ncccc3[nH]2)cc1	1.46
COC(=O)[C@H](C)NC(=O)NCc1ccccc1	1.58
CCCNC(=O)COc1cccc(C(=O)NCc2ccccc2)c1	-1.46
Nc1ccc2cc(Br)ccc2c1	1.11
C=CCN1C(=O)/C(=C2/Sc3ccc(OC)cc3N2C)SC1=Nc1ccc(OC)cc1	12.6
O=C(NCCCN1CCOCC1)c1cc(-c2ccc(F)cc2)on1	-19.5
Cc1onc(-c2ccccc2Cl)c1C(=O)Nc1ccc(CN2CCCC2)cc1	6.77
CN1CC=C2C(C#N)=C(N)C(C#N)(C#N)C(Cc3ccccc3)C2C1 (stereo not drawn)	-6.19
CCOC(=O)C1(C)C=C(Nc2ccc(OCC)cc2)C(=O)N1c1ccccc1 (stereo not drawn)	23.6
CC(NS(=O)(=O)c1ccc(CCC(=O)NCc2cccnc2)cc1)c1ccccc1 (stereo not drawn)	-1.35
CC1CCC(C(C)C)C(OC(=O)Cn2c(-c3ccc(Cl)cc3)[n+](C)c3ccccc32)C1.[Cl-] (stereo not drawn)	-82.9
COc1ccc(S(=O)(=O)N(C)CC(=O)Nc2cccc(C(C)=O)c2)cc1C	-26.4
COc1ccc(N2C(=O)CC(Sc3n[nH]c(-c4ccc(C)cc4)n3)C2=O)cc1 (stereo not drawn)	-4.46
Cc1cc(=O)[nH]c(=O)n1Cc1ccccc1	5.55
O=C(Cc1ccccc1[N+](=O)[O-])NCc1ccco1	8.1
COc1ccc(C(=O)Nc2ccccc2C(=O)NCc2ccco2)cc1OC	-7.91
Cc1ccc(S(=O)(=O)N2CCN(C(=O)N3CCCC3)CC2)cc1	1.88
Cc1cc(=O)oc2c(C)c(OC(C)C(=O)NC(Cc3c[nH]c4ccc(O)cc34)C(=O)O)ccc12 (stereo not drawn)	13.8
